# Laboratory results reported in PubChem BioAssay (NCATS).
# Inconclusive means that the source gave no clear call. Such entries were picked first, then a sample of the others. For part of these data: Potencies of inconclusive entries are left out as doubtful fits. Active and inactive are the calls of the source. Unless noted, calls follow the shape of the dose curve; as a rule, active = well fitted curve in the direction sought with a large enough effect; inconclusive = small, poorly fitted or top-dose-only effect, or another doubt; inactive = no such curve, though single readings can be large; an effect the other way counts as inactive or inconclusive.
# Key:
# [1] = qHTS of pediatric cancer cell lines to identify multiple opportunities for drug repurposing: Primary screen for SJ-GBM2 cells (AID 1347091)
# Method in brief: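 Eight- or eleven-point concentration series, 48 h treatment at 37 degrees C in growth media; readout CellTiter-Glo luminescence. Potency and efficacy were taken from the concentration-response curves.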
# [2] = biological target: Cytochrome P450 2C9 (Homo sapiens) (UniProt P11712); assay: Cytochrome P450 family 2 subfamily C member 9 (CYP2C9) small molecule antagonists: luciferase biochemical (cell-free) qHTS assay (AID 1645842; active = well fitted curve in the direction sought with a large enough effect in the repeat runs; inconclusive = weak or mixed curves; inactive = no such curve, though single readings can be large; an effect the other way counts as inactive or inconclusive; also: nearly all actives have a fitted effect of over 55% in size)
# UniProt P11712, sequence (P11712 whole entry, looked up): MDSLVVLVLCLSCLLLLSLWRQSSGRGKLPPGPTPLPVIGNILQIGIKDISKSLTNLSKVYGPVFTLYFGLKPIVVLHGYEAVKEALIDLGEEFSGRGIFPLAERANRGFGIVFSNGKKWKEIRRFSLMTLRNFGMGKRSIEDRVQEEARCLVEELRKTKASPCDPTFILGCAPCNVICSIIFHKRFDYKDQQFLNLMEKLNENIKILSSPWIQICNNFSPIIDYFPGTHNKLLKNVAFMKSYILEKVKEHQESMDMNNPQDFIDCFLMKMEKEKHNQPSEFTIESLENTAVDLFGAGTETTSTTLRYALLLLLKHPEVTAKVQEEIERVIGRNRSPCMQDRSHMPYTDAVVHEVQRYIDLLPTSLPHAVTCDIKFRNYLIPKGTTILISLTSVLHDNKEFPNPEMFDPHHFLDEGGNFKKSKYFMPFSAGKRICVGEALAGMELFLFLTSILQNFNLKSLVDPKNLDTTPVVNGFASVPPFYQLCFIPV
# Method in brief: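 P450-Glo CYP2C9 system: proluciferin substrate with enzyme in mix containing 0.4% BSA, 10 min at room temperature, then NADPH regeneration solution added and incubated 1 h at 37C. Detection reagent stopped reaction; luminescence read after 20 min as RLU.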
# [3] = Quantitative High-Throughput drug screen in 47 multiple myeloma cell lines against the NCATS MIPE library collection: H1112_PLB cell viability assay (AID 1918967; also: nearly all actives have a fitted effect of over 30% in size)
# Method in brief: (§1)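 Luminescent ATP measurement with CellTiter-Glo gives viability, scaled between DMSO-only wells (100%) and media-only wells (0%). Cells, 500 per well, faced library compounds for 48 hours at 37C.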
# [4] = Quantitative High-Throughput drug screen in 47 multiple myeloma cell lines against the NCATS MIPE library collection: MMM1_PLB cell viability assay (AID 1918976); also: nearly all actives have a fitted effect of over 35% in size
# Method in brief: (§2)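 Readout: median RLU from CellTiter-Glo after 5 min at room temperature. Preceding step was 48 h drug treatment of 500 cells/well at 37 °C, 5% CO2, with DMSO-only and media-only control wells.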
# [5] = Quantitative High-Throughput drug screen in 47 multiple myeloma cell lines against the NCATS MIPE library collection: SKMM1_PLB cell viability assay (AID 1919863); conditions: SKMM1 myeloma viability, CellTiter-Glo ATP, 48 h; viability: active compounds read low; also: nearly all actives have a fitted effect of over 35% in size
# Method in brief: as §2
# [6] = qHTS of pediatric cancer cell lines to identify multiple opportunities for drug repurposing: Primary screen for SK-N-MC cells (AID 1347093); conditions: SK-N-MC viability, CellTiter-Glo luminescence, 48 h; activity change, negative = cytotoxic: at 46 µM (top of the series)
# Method in brief: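 Metabolically active cells were quantified by ATP-dependent luminescence (CellTiter-Glo, 15 min at room temperature) following 48 h treatment. Cells had been plated at 500-1,000 per well and settled for 5 h beforehand.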
# [7] = qHTS of pediatric cancer cell lines to identify multiple opportunities for drug repurposing: Primary screen for control Hh wild type fibroblast cells (AID 1347106); also: nearly all actives have a fitted effect of over 55% in size
# Method in brief: (§3)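 Cells (500-1,000/well) in growth media were settled 5 h at 37 degrees C, then given compounds for 48 h. Viability was read as CellTiter-Glo luminescence. Primary runs used MIPE at 11 points (0.78 nM-46 µM) and NPC at 8 points (0.59 nM-46 µM); follow-ups used 11 points.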
# [8] = qHTS of pediatric cancer cell lines to identify multiple opportunities for drug repurposing: Confirmatory screen for NB-EBc1 cells (AID 1347115); conditions: NB-EBc1 neuroblastoma cells, viability (cytotoxicity); activity change, negative = cytotoxic: at 45.9 µM (top of the series);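 also: cells exposed to compound for 48 h before the viability read; nearly all actives have a fitted effect of over 45% in size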
# Method in brief: as §3
# [9] = Quantitative High-Throughput drug screen in 47 multiple myeloma cell lines against the NCATS MIPE library collection: MM1R_ATCC cell viability assay (AID 1918981); also: nearly all actives have a fitted effect of over 35% in size
# Method in brief: as §2
# [10] = Quantitative High-Throughput drug screen in 47 multiple myeloma cell lines against the NCATS MIPE library collection: U266_ATCC cell viability assay (AID 1919864); also: nearly all actives have a fitted effect of over 35% in size
# Method in brief: as §2
# [11] = Quantitative High-Throughput drug screen in 47 multiple myeloma cell lines against the NCATS MIPE library collection: PCM6_Riken cell viability assay (AID 1919870); also: nearly all actives have a fitted effect of over 30% in size
# Method in brief: as §2
# [12] = Quantitative High-Throughput drug screen in 47 multiple myeloma cell lines against the NCATS MIPE library collection: KMS28BM_JCRB cell viability assay (AID 1919874); also: nearly all actives have a fitted effect of over 35% in size
# Method in brief: as §2
# MCC-13 = assay: qHTS assay to identify novel small-molecules to repurpose for Merkel cell carcinoma treatment (AID 1296009); conditions: MCC and control cell lines, CellTiter-Glo viability, 72 h; series mostly up to 46 µM; also: nearly all actives have a fitted effect of over 60% in size
# Method in brief: (§4)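 Luminescence from CellTiter-Glo, read 10 min after addition at room temperature, reported viability following a 72 hr, 37 degree celsius treatment with NPC or MIPE compounds in titration; values normalized to plate controls.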
# [13] = qHTS of pediatric cancer cell lines to identify multiple opportunities for drug repurposing: Primary screen for OHS-50 cells (AID 1347103); also: nearly all actives have a fitted effect of over 40% in size
# Method in brief: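 Cells (500-1,000/well) rested 5 h, then received compounds for 48 h; metabolically active cells were measured by CellTiter-Glo luminescence. Final concentrations spanned up to 46 µM (MIPE, 11-point) or 0.59 nM-46 µM (NPC, 8-point) in primary screens, 11-point in follow-ups.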
# [14] = qHTS of pediatric cancer cell lines to identify multiple opportunities for drug repurposing: Primary screen for Saos-2 cells (AID 1347097); also: nearly all actives have a fitted effect of over 40% in size
# Method in brief: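 Quantitative HTS format: each compound titrated (MIPE 11 points from 0.78 nM, NPC 8 points from 0.59 nM) onto cells plated 5 hours earlier. After 48 h at 37 degrees C, CellTiter-Glo luminescence was recorded.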
# [15] = qHTS of pediatric cancer cell lines to identify multiple opportunities for drug repurposing: Primary screen for LAN-5 cells (AID 1347100)
# Method in brief: as §3
# MKL-2 = assay: qHTS assay to identify novel small-molecules to repurpose for Merkel cell carcinoma treatment (AID 1296009); conditions: MCC and control cell lines, CellTiter-Glo viability, 72 h; series mostly up to 46 µM; also: nearly all actives have a fitted effect of over 60% in size
# Method in brief: as §4
# [16] = Quantitative High-Throughput drug screen in 47 multiple myeloma cell lines against the NCATS MIPE library collection: Delta47_JCRB cell viability assay (AID 1918925; also: nearly all actives have a fitted effect of over 45% in size); conditions: Delta47 myeloma viability, CellTiter-Glo ATP, 48 h; series mostly up to 45.8 µM
# Method in brief: as §1
# [17] = Quantitative High-Throughput drug screen in 47 multiple myeloma cell lines against the NCATS MIPE library collection: RPMI8226_ATCC cell viability assay (AID 1919871); also: nearly all actives have a fitted effect of over 30% in size
# Method in brief: as §2
# Potency is read from the fitted curve at half-maximal effect; tags tell the direction and shape of the fitted curve.
structure (smiles),measurement,setting,value
NC1(Cc2ccc(Cl)cc2)CCN(c2ncnc3[nH]ccc23)CC1,Potency,[1],active: 5.26 µM
same,Potency,[2],inactive
same,Potency,[3],"inconclusive [cytotoxic, full curve]"
same,Potency,[4],active: 0.526 µM
same,Potency,[5],active: 18.7 µM
CCCNC(=O)NS(=O)(=O)c1ccc(Cl)cc1,Potency,[6],"inconclusive [cytotoxic, full curve, poor fit]"
same,Potency,[2],"inconclusive [inhibitor, partial curve, poor fit]"
CC[C@@]1([C@@H]2O[C@@H]([C@H]3O[C@@](O)(CO)[C@H](C)C[C@H]3C)C[C@H]2C)CC[C@H]([C@]2(C)CC[C@]3(C[C@H](O)[C@@H](C)[C@@H]([C@@H](C)[C@@H](OC)[C@H](C)C(=O)O)O3)O2)O1,Potency,[6],"inconclusive [cytotoxic, full curve, poor fit]"
same,Potency,[7],"inconclusive [cytotoxic, full curve]"
same,Potency,[8],active: 1.62 µM
same,Potency,[3],"inconclusive [cytotoxic, full curve]"
same,Potency,[9],active: 0.229 µM
same,Potency,[10],active: 0.363 µM
same,Potency,[11],"inconclusive [cytotoxic, full curve]"
same,Potency,[12],active: 0.575 µM
same,Potency,MCC-13,"inconclusive [inhibitor, partial curve]"
Cc1cc(Nc2ncnc3ccc(-c4ccc(CNCCS(C)(=O)=O)o4)cc23)ccc1Oc1ccn2ncnc2c1,Potency,[13],active: 1.22 µM
same,Potency,[8],"inconclusive [cytotoxic, partial curve, poor fit]"
same,Potency,[12],active: 16.6 µM
O=c1[nH]c(=O)n([C@H]2C[C@H](O)[C@@H](CO)O2)cc1F,Potency,[14],"inconclusive [cytotoxic, partial curve]"
same,Potency,[15],active: 1.33 µM
same,Potency,MCC-13,"inconclusive [inhibitor, full curve]"
same,Potency,MKL-2,"inconclusive [inhibitor, partial curve, poor fit]"
CC(C)c1cc(-c2n[nH]c(=O)n2-c2ccc3c(ccn3C)c2)c(O)cc1O,Potency,[15],active: 0.0662 µM
same,Potency,[7],"inconclusive [cytotoxic, full curve]"
same,Potency,[8],inactive
same,Potency,[16],active: 0.0332 µM
same,Potency,[3],"inconclusive [cytotoxic, full curve]"
same,Potency,[4],active: 0.0743 µM
same,Potency,[17],active: 0.0372 µM
